± gives the standard deviation of the averaged measurements. Some of the results follow.

The test system of this experiment is PfAP2-EXP AP2 domain (GST-tagged). Briefly: gcPBM binding intensity (ln(normalized median fluorescence intensity)); higher = stronger DNA binding. An outline of the steps:
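Each value is the highest Masliner-normalised natural-log median intensity across replicate spots of either orientation of a probe. The probes were primer-extended double-stranded 36-bp intergenic genomic sequences on an Agilent 4 × 180k array, alongside negative controls, exposed for 1 h to GST-tagged P. falciparum DNA-binding domains expressed in E. coli. Bound protein was picked up with Alexa488 anti-GST antibody and scanned at 488 nm.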
On to AAAATAATTTTATAAGTGCAAAATAGCTTATTTATA, for which the “gcPBM binding intensity (ln)” value came out at 8.47 ± 0.18.

Turning to “TAATCATTTTAGCTTACACACAAAATTTTGTTATAA [CACACA_site2939]”, the “gcPBM binding intensity (ln)” value was 8.48 ± 0.41.

As to “TTTATAAATTCTCTTTTTAAAAAATATTTTTATACT [CACACA_negctrl_site427]”, the “gcPBM binding intensity (ln)” value turned out to be 8.31 ± 0.45.

Consider “AAAATGGAACTAGGAATAATATAAGAAGATAAAAGG [XGTACX_negctrl_site347]”, for which the “gcPBM binding intensity (ln)” value stood at 8.87 ± 0.47.

As to “TTGTACAAAAATAATGCACACTATATCAAGTTTTTT [CACACA_site5898]”, the “gcPBM binding intensity (ln)” value came to 8.66 ± 0.028.

For TATACGTATTACAGAGTGCAATAAACAGTATATATT, the “gcPBM binding intensity (ln)” value was 8.78 ± 0.3.

“GTAAAACAGATTTACAGTACACATGTGTTATGTTTT [XGTACX_site2933]”: the “gcPBM binding intensity (ln)” value was found to be 8.7 ± 0.38.

“ATAAAAATATTTGAATGTACTTATAAGATATATATA [XGTACX_site4257]”: the “gcPBM binding intensity (ln)” value came out at 8.63 ± 0.35.

Regarding “TTTATATATAAATAATGTACAAAAAATTTTAAAAAG [XGTACX_site7990]”, the “gcPBM binding intensity (ln)” value came out at 8.9 ± 0.29.

For “TTTTTATATTTTATTATTTTTTTTATATAAAAAATT [CACACA_negctrl_site601]”, the “gcPBM binding intensity (ln)” value was 8.62 ± 0.42.

With “TATTTTAATTTTTGTTGTACGCAAATGTGAGGGCAT [XGTACX_site4663]”, the “gcPBM binding intensity (ln)” value is 8.68 ± 0.43.

As for “TAAACCAAAAAAAGTAGTACAAATATTATAAAAAAA [XGTACX_site8497]”, the “gcPBM binding intensity (ln)” value is 8.69 ± 0.39.

In the case of “GATGTATTCATACATGCACACGTACATATTTAAATA [CACACA_site9299]”, the “gcPBM binding intensity (ln)” value is 8.84 ± 0.32.

With “TGTTTATTTATTTGTGTGCACTCAGATTATATTATA [GTGCAC_site9510]”, the “gcPBM binding intensity (ln)” value worked out at 8.95 ± 0.2.

In the case of “AAATCGTGCACGGACACATGCAGTAGCCGAGAATTA [TGCATGCA_site733]”, the “gcPBM binding intensity (ln)” value was determined as 9.08 ± 0.34.

With “AGGTAGAAAAAAGACACACACATTAGATATTTATAT [CACACA_site6313]”, the “gcPBM binding intensity (ln)” value is 8.73 ± 0.36.

“GTTCATAAATTAAACACACACACACGGCTGGATACC [CACACA_site7545]”: the “gcPBM binding intensity (ln)” value stood at 8.86 ± 0.47.

Turning to “GTTCAAATTATTATGTGTACTAAAGAATATTTTAAA [XGTACX_site3166]”, the “gcPBM binding intensity (ln)” value stood at 8.29 ± 0.28.

Take “CTTTATTTTTTATACACACACAATATGTATTTATAT [CACACA_site5879]”: the “gcPBM binding intensity (ln)” value stood at 8.83 ± 0.41.

On to “TCTATTTTTTATATGGTGCATTGTTCTTATTAATAT [GTGCAC_site9392]”, for which the “gcPBM binding intensity (ln)” value came out at 9.1 ± 0.28.

For “AATTAATTTATGTTACGTACATAAGTATTATATTTT [XGTACX_site388]”, the “gcPBM binding intensity (ln)” value was determined as 8.62 ± 0.2.

Take “AGGAAAAATAATTATTCACACAATAAATATATTTGA [CACACA_site5824]”: the “gcPBM binding intensity (ln)” value came out at 8.33 ± 0.48.

As for “AAATGTAATATAAATAGTACATATTAAATAAAATTA [XGTACX_site6917]”, the “gcPBM binding intensity (ln)” value was 8.31 ± 0.27.

On to “ATGTGCACATATAAAAGTACACGCACATATATATAT [XGTACX_site1238]”, for which the “gcPBM binding intensity (ln)” value stood at 9.82 ± 0.028.

On to “TGCACAAAGTTATGCACACACCTAAAATTAATTTTT [CACACA_site7385]”, for which the “gcPBM binding intensity (ln)” value turned out to be 8.995 ± 0.007.

Consider “TATACACATATATACACACACATATATAAATAAATA [CACACA_site7579]”, for which the “gcPBM binding intensity (ln)” value was found to be 8.55 ± 0.35.

As to “GTACATAGGTATAGCACACACAAATGTAGGTATTTT [CACACA_site4049]”, the “gcPBM binding intensity (ln)” value was 8.46 ± 0.28.

Consider “ATTCTTTATATGCATACACACCTAATATAGGGACCT [CACACA_site6830]”, for which the “gcPBM binding intensity (ln)” value came to 9.04 ± 0.6.

Regarding “TTATAATATGTATACACACACATATATAGATATATA [CACACA_site7159]”, the “gcPBM binding intensity (ln)” value worked out at 8.54 ± 0.4.

Consider “AAAAAAAAAAAAAAAACACACATAAAAATATAATAA [CACACA_site3855]”, for which the “gcPBM binding intensity (ln)” value was 8.53 ± 0.33.

In the case of ATTATATATAATATAGTGCATGTAAAAAATAAAACA, the “gcPBM binding intensity (ln)” value turned out to be 9.23 ± 0.33.

“AAGAATATTATAAACACACACTTTATAAAGAATTAT [CACACA_site4241]”: the “gcPBM binding intensity (ln)” value amounted to 8.51 ± 0.52.

For the sequence “TATATAATTGTCTTCACACACACATATATATATATA [CACACA_site2744]”, the “gcPBM binding intensity (ln)” value is 10 ± 0.3.

As to “TATTTTATTTGTATATTCATTTGTATAATATAAATA [TGCATGCA_negctrl_site267]”, the “gcPBM binding intensity (ln)” value stood at 8.21 ± 0.39.

Turning to “AAAATAATAAAAAGGGGTACAAAGAAACAAATATAA [XGTACX_site296]”, the “gcPBM binding intensity (ln)” value stood at 9.03 ± 0.53.

In the case of “AATTTATTTTTTTGATGTACATACAATTTATCACAA [XGTACX_site5936]”, the “gcPBM binding intensity (ln)” value worked out at 8.79 ± 0.42.

Turning to “TTGATGTTGGTAGGATGTACGGTACCGGTAGTATTT [XGTACX_site6642]”, the “gcPBM binding intensity (ln)” value was 8.78 ± 0.58.

With “AAGGAAAAGTAAAGAAGTACTGTACCGCCAAAAAAA [XGTACX_site2607]”, the “gcPBM binding intensity (ln)” value stood at 9.18 ± 0.57.

In the case of “TATGTGCATATAAACTCACACATTGTATATTACATG [CACACA_site6106]”, the “gcPBM binding intensity (ln)” value came to 8.75 ± 0.23.

With “ATATATGTAGATATATGTACATATATAGGTAGATAT [XGTACX_site7589]”, the “gcPBM binding intensity (ln)” value came out at 9.15 ± 0.42.

“ATAAAATAACACAACGTTGACAAATTTGGATGACTC [XGTACX_negctrl_site324]”: the “gcPBM binding intensity (ln)” value came out at 9.18 ± 0.55.

Consider “TTTATTAAAATATTCTCACACACCAAAATATGTATG [CACACA_site932]”, for which the “gcPBM binding intensity (ln)” value was found to be 8.33 ± 0.24.

Take ACTTTAGAAATAGAGGTGCTATTTTTATTACCACAC: the “gcPBM binding intensity (ln)” value came out at 8.47 ± 0.22.

Consider “AAAAATTTATTTAAAAGTACATAAAATAAAGGTGGA [XGTACX_site7591]”, for which the “gcPBM binding intensity (ln)” value was 8.87 ± 0.4.

Take “TATTACATTATATAAACATGCAAAACTATATATTAT [TGCATGCA_site601]”: the “gcPBM binding intensity (ln)” value came out at 8.63 ± 0.45.

For the origin of these results see the supplement of paper PMC11417369.
